From the supplement of paper PMC10126150
Values marked as one replicate rest on one cluster of the flow cell; about a third of the high ones do not repeat.

Test system: ATP
Test: switch fluorescence ratio, 500 uM ATP over buffer (Cy3 cluster intensity, sum of 5 cycles each) (fold (ratio)); higher = stronger signal-on switching upon ATP binding; sequences stand for … in TCGTCGGCAGCGTCAGATGTGTATAAGAGACAGTTTTTTTTTTTTTTTTTTTTTTTTT…TC
Conditions: aptamer strand: ATP DNA aptamer (quencher-CACCTGGGGGAGTATTGCGGAGGAAGG + anchor), 100 nM annealed; ATP concentration: 500 uM; one replicate
Method in brief: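 Imaging in selection buffer was followed by imaging after 15 min with 500 uM ATP at 22 °C, for Cy3-labelled switching-strand clusters annealed to 100 nM quencher-labelled ATP aptamer on a modified Illumina MiSeq flow-cell. Five of these buffer/ATP cycles ran, separated by NaOH stripping and re-annealing. The fluorescence ratio per cluster is summed target-cycle over summed buffer-cycle Cy3 intensity, averaged per switch-domain sequence; clusters outside 100-1000 RFU were removed.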
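Note: ATP exposure 15 min at 22 °C before imaging.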

With GCGCGACGT the switch fluorescence ratio was 1.01.

Work on TTCTCAAGTT yielded a switch fluorescence ratio of 1.01.

Work on AAGCGCCCTG yielded a switch fluorescence ratio of 0.998.

GTTAGGATTG was tested, and the switch fluorescence ratio was 0.971.

In the case of ATAAAGCGGG, the switch fluorescence ratio is reported as 1.

Sequence CGTTTAGCCA has a switch fluorescence ratio of 0.964.

For CACGGGAGAG, the switch fluorescence ratio was 1.06.

TCCTGGAGTT showed a switch fluorescence ratio of 0.966.

GTACCCTTTG showed a switch fluorescence ratio of 1.

Work on AAACATGTAT yielded a switch fluorescence ratio of 0.965.

Work on GAGAAACTTA yielded a switch fluorescence ratio of 0.99.

GTACCAGCCT was tested, and the switch fluorescence ratio was 1.06.

CCATTGTCTA was tested, and the switch fluorescence ratio was 1.01.

Work on ATATAATATT yielded a switch fluorescence ratio of 0.964.

GGAGTGCCAA gave a switch fluorescence ratio of 0.953.

GACGCCGTAT was tested, and the switch fluorescence ratio was 0.997.

Sequence CTCACAGACA has a switch fluorescence ratio of 1.29.

Work on TGACCAGCAT yielded a switch fluorescence ratio of 1.13.

GGTTCGAGCC showed a switch fluorescence ratio of 1.06.

GTAAGCAGTG showed a switch fluorescence ratio of 0.986.

For TGTAAGGAAG, the switch fluorescence ratio was 1.

Work on CGGCCAAGCT yielded a switch fluorescence ratio of 1.05.

For ATTGGCTACC, the switch fluorescence ratio was 0.966.

AATAGCATTC gave a switch fluorescence ratio of 1.24.

ATGAACCCAG gave a switch fluorescence ratio of 2.51.

With AGACAGACCC the switch fluorescence ratio was 1.06.

Work on ACGGGGAAGA yielded a switch fluorescence ratio of 1.09.

For GTTGGGAAA, the switch fluorescence ratio was 1.03.

In the case of TCATCCTGGG, the switch fluorescence ratio is reported as 1.08.

For GGTAGTGCTA, the switch fluorescence ratio was 0.989.

For TGAGAGTGTG, the switch fluorescence ratio was 0.993.

AGTTAGCCCG was tested, and the switch fluorescence ratio was 0.97.

In the case of CATTGGGCAG, the switch fluorescence ratio is reported as 0.974.

In the case of TTAACAGCG, the switch fluorescence ratio is reported as 0.979.

With CGCTGCTTGG the switch fluorescence ratio was 1.05.

Work on AGGTGGGGCG yielded a switch fluorescence ratio of 1.08.

TATCGCTGAT was tested, and the switch fluorescence ratio was 1.01.

With TGCGCCGGTT the switch fluorescence ratio was 1.01.

AAGGTGGGTC showed a switch fluorescence ratio of 0.973.

With TATCAGAA the switch fluorescence ratio was 0.985.

For AGCTCTTTGA, the switch fluorescence ratio was 0.997.

GGTACATCGT gave a switch fluorescence ratio of 0.957.

AGAAGGTGTA was tested, and the switch fluorescence ratio was 0.983.

TCAGAGCGCT gave a switch fluorescence ratio of 1.04.

For TTACGTTGTT, the switch fluorescence ratio was 0.988.

Sequence TCTAGTGGTC has a switch fluorescence ratio of 1.06.

TCCGGTTTGG showed a switch fluorescence ratio of 0.969.

TCGTGTCGCT showed a switch fluorescence ratio of 0.982.

In the case of GCTGTTTAGT, the switch fluorescence ratio is reported as 1.02.

CTCGCTAAGT was tested, and the switch fluorescence ratio was 1.09.

Work on TAGTTGATAC yielded a switch fluorescence ratio of 1.18.

In the case of AGCCACGCGC, the switch fluorescence ratio is reported as 1.03.

ATGTATTCGG was tested, and the switch fluorescence ratio was 0.998.

For TTTGTTGGTT, the switch fluorescence ratio was 1.03.

With CGAAGGACCT the switch fluorescence ratio was 0.93.

GCGATCCATT was tested, and the switch fluorescence ratio was 0.982.

In the case of ACCGCGGGTG, the switch fluorescence ratio is reported as 1.63.

GCCCAGGCAC was tested, and the switch fluorescence ratio was 1.

Work on GAAATGGATA yielded a switch fluorescence ratio of 1.02.

For CGGCAAATCG, the switch fluorescence ratio was 1.02.

With GGGATAATAT the switch fluorescence ratio was 1.03.

In the case of CAGCGTCCGA, the switch fluorescence ratio is reported as 1.02.

Sequence ATGCACGGAG has a switch fluorescence ratio of 0.98.

TGTGTAGAGC gave a switch fluorescence ratio of 0.985.

AAACTACACA was tested, and the switch fluorescence ratio was 1.38.

Sequence ACCGTAGTTC has a switch fluorescence ratio of 2.08.

ACGGAAGACG showed a switch fluorescence ratio of 1.03.

ACGGAGACTC showed a switch fluorescence ratio of 1.17.

For TACATGGGA, the switch fluorescence ratio was 1.01.

TACTATTTGA showed a switch fluorescence ratio of 0.989.

CACGGCCCTG gave a switch fluorescence ratio of 0.949.

Work on CCTCTACCTT yielded a switch fluorescence ratio of 1.21.

AAGCAGAACG showed a switch fluorescence ratio of 1.01.

For TCATCTACAA, the switch fluorescence ratio was 1.23.

GGCCGTGATC was tested, and the switch fluorescence ratio was 1.15.

In the case of GTGTGCAATA, the switch fluorescence ratio is reported as 1.25.

Sequence TACGGACGTA has a switch fluorescence ratio of 1.01.

In the case of TTGAATTAGT, the switch fluorescence ratio is reported as 1.02.

Sequence TGGGCAAAAC has a switch fluorescence ratio of 0.954.

GGTTAGAAGT showed a switch fluorescence ratio of 0.98.

TAGAGTTCAG was tested, and the switch fluorescence ratio was 1.

TATCTCTTTC was tested, and the switch fluorescence ratio was 0.981.

Sequence GCGCTGCAGG has a switch fluorescence ratio of 0.977.

TTCGAGCGGG was tested, and the switch fluorescence ratio was 0.995.

GAATAGGCGC was tested, and the switch fluorescence ratio was 0.983.

Sequence ACAGAATTCA has a switch fluorescence ratio of 1.02.

TACAACATTA showed a switch fluorescence ratio of 1.07.

TGGATCCACA showed a switch fluorescence ratio of 1.01.

Work on ATGCAATGTA yielded a switch fluorescence ratio of 1.05.

Sequence GGACCAAGAT has a switch fluorescence ratio of 1.01.

With GTATTACGCC the switch fluorescence ratio was 1.02.

For ACCTGAGGGT, the switch fluorescence ratio was 1.06.

TCCAATGGGT showed a switch fluorescence ratio of 0.973.

With CGGCTATATG the switch fluorescence ratio was 1.03.

In the case of ATTGTTAACT, the switch fluorescence ratio is reported as 0.997.

TGCTTCAAGA gave a switch fluorescence ratio of 0.967.

With AGGTAATTGC the switch fluorescence ratio was 1.02.

TACCAGCGAG was tested, and the switch fluorescence ratio was 1.04.

Work on CGCCTGTTT yielded a switch fluorescence ratio of 1.29.

Work on TCTACCGTTG yielded a switch fluorescence ratio of 1.04.

In the case of ATAGACGCGT, the switch fluorescence ratio is reported as 0.948.

In the case of TAGTCCGTTA, the switch fluorescence ratio is reported as 1.05.

For CAACGAAAAT, the switch fluorescence ratio was 1.03.

In the case of TTGGGCTAGA, the switch fluorescence ratio is reported as 1.01.

CGGACTCATG gave a switch fluorescence ratio of 1.

TCTTACCAGC gave a switch fluorescence ratio of 1.

TTACCGTGAT was tested, and the switch fluorescence ratio was 1.19.

TCACAAGAGT showed a switch fluorescence ratio of 0.981.

With AATTAAAAAA the switch fluorescence ratio was 1.21.

GATTTGTCTG showed a switch fluorescence ratio of 1.04.

With CGTATATGAT the switch fluorescence ratio was 1.04.

GAAGCGACCG showed a switch fluorescence ratio of 1.01.

Sequence CGTCGCAGCG has a switch fluorescence ratio of 1.

For AGAGTCCGCC, the switch fluorescence ratio was 1.19.

Sequence TTGAGTGACT has a switch fluorescence ratio of 1.01.

Work on TGTATCTTAG yielded a switch fluorescence ratio of 1.02.

Sequence AAAGGGCGT has a switch fluorescence ratio of 0.986.

In the case of GTTCGAATAT, the switch fluorescence ratio is reported as 0.99.

Sequence CCTTGGCGGC has a switch fluorescence ratio of 1.34.

In the case of AGACTGAGCT, the switch fluorescence ratio is reported as 0.996.

TCAAGGCTTA showed a switch fluorescence ratio of 1.

Work on CAGGTGATGT yielded a switch fluorescence ratio of 1.3.

Sequence ACAGTCGG has a switch fluorescence ratio of 0.999.

Sequence TTCTTACCCC has a switch fluorescence ratio of 1.09.

TAGTAAGATA showed a switch fluorescence ratio of 0.989.

For ATACGTCAAG, the switch fluorescence ratio was 1.01.

For ATTCGATCTG, the switch fluorescence ratio was 1.05.

GCTTCAGTGT showed a switch fluorescence ratio of 1.01.

For CTAACTGCGG, the switch fluorescence ratio was 0.994.

For ACTTTTATTA, the switch fluorescence ratio was 0.978.

For ACTGAGGGT, the switch fluorescence ratio was 1.04.

TTCTTGGAGA showed a switch fluorescence ratio of 1.16.

For ATTTATTAGG, the switch fluorescence ratio was 1.02.

In the case of GAGACTTGAT, the switch fluorescence ratio is reported as 0.991.

For GCCAAAAAGA, the switch fluorescence ratio was 1.01.

Work on CGTCCTGACG yielded a switch fluorescence ratio of 0.959.

In the case of GACACAATGG, the switch fluorescence ratio is reported as 1.43.

TAACGTGCTA gave a switch fluorescence ratio of 0.984.

With ATTCATTTGC the switch fluorescence ratio was 0.959.

In the case of GGTCAAGTCA, the switch fluorescence ratio is reported as 1.02.

With AAAAGGCCTA the switch fluorescence ratio was 0.996.

For CGACTATCCG, the switch fluorescence ratio was 0.991.

CGACCGGTGT was tested, and the switch fluorescence ratio was 1.41.

For AGTAAAGGC, the switch fluorescence ratio was 1.

In the case of CTATGGACCG, the switch fluorescence ratio is reported as 0.976.

With CAGGGAATTC the switch fluorescence ratio was 1.04.

Work on AGTATCTCTC yielded a switch fluorescence ratio of 1.03.

With GGCGGACAAA the switch fluorescence ratio was 1.07.

In the case of TGGGGAAG, the switch fluorescence ratio is reported as 0.978.

Work on GCCTTAAGAG yielded a switch fluorescence ratio of 1.01.

For TCATGCGACA, the switch fluorescence ratio was 1.09.

In the case of TTCAAGTCGC, the switch fluorescence ratio is reported as 0.966.

In the case of TGCCGGGTCC, the switch fluorescence ratio is reported as 0.98.

TTCTAAAAAC gave a switch fluorescence ratio of 1.07.

For CCCGATTTCA, the switch fluorescence ratio was 1.

For GGCTTAGCGT, the switch fluorescence ratio was 1.03.

For ATTATGTAGC, the switch fluorescence ratio was 0.98.
